# This is one part of the list.
# Columns and labels:
# Test in all cases: glycan array binding signal (z-score within array); higher = stronger binding
# Conditions in all cases: glycan notation: IUPAC condensed, linker removed
# GlcNAc(b1-3)Gal(b1-4)Glc = target: GlcNAc(b1-3)Gal(b1-4)Glc
# Summary of the method: (§1)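 The binding signal is a Z-score computed within each array and averaged over linkers. Arrays of the same protein sequence at different concentrations or buffers were also averaged together. Data originate from 3228 arrays in the Consortium for Functional Glycomics database, kept only where the protein sequence was available.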
# [1] = target: GlcNAc(b1-3)Gal(b1-4)GlcNAc
# Summary of the method: as §1
# [2] = target: GlcNAc(b1-3)Gal(b1-4)GlcNAc(b1-3)Gal(b1-4)GlcNAc
# Summary of the method: as §1
# GlcNAc(b1-3)GalNAc = target: GlcNAc(b1-3)GalNAc
# Summary of the method: as §1
# GlcNAc(b1-3)Man = target: GlcNAc(b1-3)Man
# Summary of the method: as §1
# [3] = target: GlcNAc(b1-3)[GlcNAc(b1-4)][GlcNAc(b1-6)]GlcNAc
# Summary of the method: as §1
# [4] = target: GlcNAc(b1-3)[GlcNAc(b1-6)]Gal(b1-4)GlcNAc
# Summary of the method: as §1
# [5] = target: GlcNAc(b1-3)[GlcNAc(b1-6)]GalNAc
# Summary of the method: as §1
# [6] = target: GlcNAc(b1-4)Gal(b1-4)GlcNAc
# Summary of the method: as §1
# GlcNAc(b1-4)GlcNAc = target: GlcNAc(b1-4)GlcNAc
# Summary of the method: as §1
# [7] = target: GlcNAc(b1-4)GlcNAc(b1-4)GlcNAc
# Summary of the method: as §1
# [8] = target: GlcNAc(b1-4)GlcNAc(b1-4)GlcNAc(b1-4)GlcNAc(b1-4)GlcNAc
# Summary of the method: as §1
# [9] = target: GlcNAc(b1-4)GlcNAc(b1-4)GlcNAc(b1-4)GlcNAc(b1-4)GlcNAc(b1-4)GlcNAc
# Summary of the method: as §1
# [10] = target: GlcNAc(b1-4)[GlcNAc(b1-6)]GalNAc
# Summary of the method: as §1
# [11] = target: GlcNAc(b1-6)Gal(b1-4)GlcNAc
# Summary of the method: as §1
# GlcNAc(b1-6)GalNAc = target: GlcNAc(b1-6)GalNAc
# Summary of the method: as §1
# GlcNAc3Prop(b1-4)GlcNAc = target: GlcNAc3Prop(b1-4)GlcNAc
# Summary of the method: as §1
# Kdn(a2-3)Gal(b1-3)GlcNAc = target: Kdn(a2-3)Gal(b1-3)GlcNAc
# Summary of the method: as §1
# Kdn(a2-3)Gal(b1-4)GlcNAc = target: Kdn(a2-3)Gal(b1-4)GlcNAc
# Summary of the method: as §1
# [12] = target: Man(a1-2)Man(a1-2)Man(a1-3)Man
# Summary of the method: as §1
# [13] = target: Man(a1-2)Man(a1-2)Man(a1-6)[Man(a1-3)]Man
# Summary of the method: as §1
# Man(a1-2)Man(a1-3)Man = target: Man(a1-2)Man(a1-3)Man
# Summary of the method: as §1
binder,measurement,setting,value
"P-Selectin (Homo sapiens), P16109 (protein) MANCQIAILYQRFQRVVFGISQLLCFSALISELTNQKEVAAWTYHYSTKAYSWNISRKYCQNRYTDLVAIQNKNEIDYLNKVLPYYSSYYWIGIRKNNKTWTWVGTKKALTNEAENWADNEPNNKRNNEDCVEIYIKSPSAPGKWNDEHCLKKKHALCYTASCQDMSCSKQGECLETIGNYTCSCYPGFYGPECEYVRECGELELPQHVLMNCSHPLGNFSFNSQCSFHCTDGYQVNGPSKLECLASGIWTNKPPQCLAAQCPPLKIPERGNMTCLHSAKAFQHQSSCSFSCEEGFALVGPEVVQCTASGVWTAPAPVCKAVQCQHLEAPSEGTMDCVHPLTAFAYGSSCKFECQPGYRVRGLDMLRCIDSGHWSAPLPTCEAISCEPLESPVHGSMDCSPSLRAFQYDTNCSFRCAEGFMLRGADIVRCDNLGQWTAPAPVCQALQCQDLPVPNEARVNCSHPFGAFRYQSVCSFTCNEGLLLVGASVLQCLATGNWNSVPPECQAIPCTPLLSPQNGTMTCVQPLGSSSYKSTCQFICDEGYSLSGPERLDCTRSGRWTDSPPMCEAIKCPELFAPEQGSLDCSDTRGEFNVGSTCHFSCDNGFKLEGPNNVECTTSGRWSATPPTCKGIASLPTPGLQCPALTTPGQGTMYCRHHPGTFGFNTTCYFGCNAGFTLIGDSTLSCRPSGQWTAVTPACRAVKCSELHVNKPIAMNCSNLWGNFSYGSICSFHCLEGQLLNGSAQTACQENGHWSTTVPTCQAGPLTIQEASTSITAYKSEGESAEFSFPLNLGEESLQGELRWKAEKAPSSQSWITFSLKNQKVSVQKSTSNPKFQLSETLPLTLQIPQVSLQFAGSGNLTLTLDRGILYQEVNLVVMKVTQPDSNTLTCEVMGPTSPKMRLILKQENQEARVSRQEKVIQVQAPEAGVWQCLLSEGEEVKMDSKIQVLSKGLNSGGGSGGGTGGGDLAPQMLRELQETNAALQDVRELLRQQVKEITFLKNTVMECDACGLDRNLPPLAPLGPHPETLVKVKDAEDQLGARVGYIELDLNSGKILESFRPEERFPMMSTFKVLLCGAVLSRIDAGQEQLGRRIHYSQNDLVEYSPVTEKHLTDGMTVRELCSAAITMSDNTAANLLLTTIGGPKELTAFLHNMGDHVTRLDRWEPELNEAIPNDERDTTMPVAMATTLRKLLTGELLTLASRQQLIDWMEADKVAGPLLRSALPAGWFIADKSGAGERGSRGIIAALGPDGKPSRIVVIYTTGSQATMDERNRQIAEIGASLIKHWGPDYKDHDGDYKDHDIDYKDDDDKGPHHHHHH",glycan array binding signal (z-score),GlcNAc(b1-3)Gal(b1-4)Glc,1.07
same,glycan array binding signal (z-score),[1],-0.25
same,glycan array binding signal (z-score),[2],-0.251
same,glycan array binding signal (z-score),GlcNAc(b1-3)GalNAc,-0.308
same,glycan array binding signal (z-score),GlcNAc(b1-3)Man,0.162
same,glycan array binding signal (z-score),[3],-0.391
same,glycan array binding signal (z-score),[4],-0.347
same,glycan array binding signal (z-score),[5],-0.329
same,glycan array binding signal (z-score),[6],-0.365
same,glycan array binding signal (z-score),GlcNAc(b1-4)GlcNAc,-0.214
same,glycan array binding signal (z-score),[7],0.144
same,glycan array binding signal (z-score),[8],-0.068
same,glycan array binding signal (z-score),[9],-0.163
same,glycan array binding signal (z-score),[10],-0.443
same,glycan array binding signal (z-score),[11],-0.272
same,glycan array binding signal (z-score),GlcNAc(b1-6)GalNAc,-0.254
same,glycan array binding signal (z-score),GlcNAc3Prop(b1-4)GlcNAc,-0.231
same,glycan array binding signal (z-score),Kdn(a2-3)Gal(b1-3)GlcNAc,-0.342
same,glycan array binding signal (z-score),Kdn(a2-3)Gal(b1-4)GlcNAc,-0.191
same,glycan array binding signal (z-score),[12],-0.04
same,glycan array binding signal (z-score),[13],-0.392
same,glycan array binding signal (z-score),Man(a1-2)Man(a1-3)Man,-0.154
